The campaign covered roughly 360,000 compounds. About 25,000 (6.9%) were called active. The inconclusive results got no clear call from the source; some entries with a clear call stand among them for comparison. The call rests on the fitted dose curve; in most records, active means well fitted inhibition curve with a large enough effect; inconclusive means small, poorly fitted or top-dose-only effect; inactive means flat fitted curve, though single readings scatter. Potencies of inconclusive entries are doubtful fits and often do not repeat.
What follows are compounds tested against Luciferin 4-monooxygenase (Photinus pyralis) (UniProt P08659) (assay: qHTS profiling assay for firefly luciferase inhibitor/activator using purifed enzyme and Km concentrations of substrates (counterscreen for miR-21 project)). Settings: purified FLuc, luminescence inhibition; series mostly up to 57.5 µM; activity change, negative = inhibition: at the top concentration.
Procedure, shortened: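 Purified P. pyralis luciferase, 10 nM final, with Km-level 10 uM D-luciferin and 10 uM ATP in 50 mM Tris acetate pH 7.5, 10 mM Mg acetate, 0.01% Tween-20, 0.05% BSA; 6-point qHTS titration about 60 µM downward; luminescence read.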
Further: nearly all actives have a fitted effect of over 55% in size.
Potency means the concentration at half of the fitted maximal effect; tags describe the fitted curve by direction and shape.
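Wherever activity change, negative = inhibition is given: plate controls were vehicle for no effect and reference inhibitor for full effect.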

UniProt P08659, sequence (P08659 whole entry, looked up): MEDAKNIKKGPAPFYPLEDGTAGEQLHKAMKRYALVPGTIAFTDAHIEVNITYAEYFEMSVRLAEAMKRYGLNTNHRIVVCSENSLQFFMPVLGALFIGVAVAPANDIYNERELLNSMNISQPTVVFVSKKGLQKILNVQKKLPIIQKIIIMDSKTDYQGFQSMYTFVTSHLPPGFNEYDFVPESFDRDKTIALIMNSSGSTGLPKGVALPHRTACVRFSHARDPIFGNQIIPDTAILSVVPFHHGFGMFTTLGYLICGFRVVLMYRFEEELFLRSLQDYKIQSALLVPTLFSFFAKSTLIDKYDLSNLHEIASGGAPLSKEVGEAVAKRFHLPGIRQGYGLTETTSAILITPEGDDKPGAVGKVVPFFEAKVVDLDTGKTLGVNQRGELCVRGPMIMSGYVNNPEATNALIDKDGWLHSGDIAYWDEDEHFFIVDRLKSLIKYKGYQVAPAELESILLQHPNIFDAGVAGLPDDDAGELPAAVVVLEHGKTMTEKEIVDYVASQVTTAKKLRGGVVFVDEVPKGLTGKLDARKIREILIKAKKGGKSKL

SMILES	Potency	activity change, negative = inhibition
CNS(=O)(=O)c1ccc(-c2ccc(C=C3C(=O)NC(=O)NC3=O)o2)cc1	inconclusive: 2.69 µM [inhibitor, full curve]	
c1ccc(SSc2ccccc2)cc1	inconclusive: 15.1 µM [inhibitor, partial curve, poor fit]	
Clc1ccc(-c2nc3ccc(Cl)cn3c2CN2CCCCC2)cc1	inconclusive: 37.9 µM [inhibitor, partial curve, poor fit]	
O=C(Nc1ccc(OC(F)(F)F)cc1)c1cccn(Cc2ccccc2Cl)c1=O	inconclusive: 37.9 µM [inhibitor, partial curve, poor fit]	
CN(C)c1ccc(/C=C/[N+](=O)[O-])cc1	inconclusive: 13.5 µM [inhibitor, partial curve]	
COCCCNC(=O)Cn1cc(/C=C2\C(=O)NC(=O)N(c3ccccc3F)C2=O)c2ccccc21	inconclusive: 30.1 µM [inhibitor, partial curve, poor fit]	
CCN(CC)c1ccc(N=Cc2c(O)n(-c3ccc(OC)cc3)c(=O)[nH]c2=O)cc1	inconclusive: 37.9 µM [inhibitor, partial curve, poor fit]	
COc1ccc(C(C)=O)cc1CC(C(=O)c1ccc(Br)cc1)N(C)C (configuration not stated)		inactive: 2.7%
C/C(CCc1c[nH]c2ccccc12)=N\O	inconclusive: 16.9 µM [inhibitor, partial curve]	
Cc1ccnc(-n2c(-c3ccco3)nc3ccccc3c2=O)c1	inconclusive: 21.3 µM [inhibitor, partial curve, poor fit]	
CCOP(=O)(C1=C(O)C(=O)C(C(C)(C)C)=CC1=O)c1ccccc1 (configuration not stated)	inconclusive: 30.1 µM [inhibitor, partial curve, poor fit]	
CN(C)c1ccc(/C=C2\C(=O)NC(=O)N(CCc3ccc(F)cc3)C2=O)cc1	inconclusive: 37.9 µM [inhibitor, partial curve, poor fit]	
CN1CCN(c2nc(N)cc(=O)[nH]2)CC1		inactive: 2.23%
CN(C)C(Cc1ccccc1)C(=O)c1c[nH]c2ccccc12 (configuration not stated)	active: 23.9 µM	
CCn1c(O)c(C(=O)CC2NCCc3ccccc32)c(=O)n(CC)c1=S (configuration not stated)	inconclusive: 13.5 µM [inhibitor, partial curve, poor fit]	
O=C(c1cc(-c2ccccc2)nc2ccccc12)N1CCC2(CC1)OCCO2	inconclusive: 16.9 µM [inhibitor, partial curve, poor fit]	
COc1ccc(O)c(C(=O)c2cnn(-c3ccccn3)c2)c1	inconclusive: 37.9 µM [inhibitor, single point]	
O=C(CNC(=O)c1ccc(Cl)cc1)OCC(=O)c1ccc2c(c1)OCCO2	active: 21.3 µM	
O=C(NCc1ccc2c(c1)CCN2C(=O)c1ccccc1)Nc1cccc(C(F)(F)F)c1	inconclusive: 15.1 µM [inhibitor, partial curve, poor fit]	
Cc1ccc2c(c1)C1CN(C)CCC1N2C(=O)Nc1ccc(Cl)cc1 (configuration not stated)	inconclusive: 16.9 µM [inhibitor, partial curve]	
FC(F)(F)c1ccc(CSc2ccccn2)cc1	active: 15.1 µM	

SMILES	Potency	activity change, negative = inhibition
COc1ccc(/C=C2\SC(=O)N(CCn3cnnn3)C2=O)cc1	inconclusive: 21.3 µM [inhibitor, partial curve, poor fit]	
Cn1c(O)c(/C=N/NC(=O)c2ccncc2)c(=O)[nH]c1=S	inconclusive: 30.1 µM [inhibitor, single point]	
COc1cccc(-n2nc(C(=O)N3CCC4(CC3)OCCO4)c3ccccc3c2=O)c1		inactive: -1.41%
O=C1NC(=O)C(=Cc2ccc(N3CCOCC3)cc2)C(=O)N1	inconclusive: 26.9 µM [inhibitor, single point]	
O=C(c1ccc2c(c1)ncn2C1CCCCCC1)N1CCC2(CC1)OCCO2		inactive: -1.15%
COP(=O)(OC)C(NC(=O)c1ccc(C)cc1)C(Cl)(Cl)Cl (configuration not stated)	inconclusive: 21.3 µM [inhibitor, single point]	
Cc1cccc(Cn2cccc(C(=O)Nc3nc4ccccc4s3)c2=O)c1	active: 6.01 µM	
Nc1nonc1C(=O)N/N=C/c1ccc([N+](=O)[O-])o1	inconclusive: 37.9 µM [inhibitor, partial curve, poor fit]	
O=c1[nH]c(=O)n(-c2ccccc2)c(O)c1/C=C1/C(c2ccccc2)=Nc2ccccc21	inconclusive: 26.9 µM [inhibitor, single point]	
COc1ccc(-c2nc(SCC(=O)NC(C)CCc3ccccc3)n[nH]2)cc1 (configuration not stated)	inconclusive: 23.9 µM [inhibitor, partial curve]	
O=C(COC(=O)Cc1ccccc1)Nc1ncc(Cl)cc1Cl	inconclusive: 23.9 µM [inhibitor, single point]	
CNC(=O)Oc1cccc2ccccc12		inactive: -3.18%
Cc1ccc(/C=C2/C(=O)NC(=O)N(C)C2=O)cc1	inconclusive: 16.9 µM [inhibitor, single point]	
Cn1c(O)c(C=Nc2ccc(Br)cc2)c(=O)n(C)c1=O	inconclusive: 8.49 µM [inhibitor, partial curve, poor fit]	
O=C(Nc1ccccc1)c1cccn(Cc2ccccc2)c1=O	active: 23.9 µM	
Cc1ccccc1-n1c(O)c(C=Nc2ccc(N(C)C)cc2)c(=O)[nH]c1=O	inconclusive: 37.9 µM [inhibitor, single point]	
Cc1ccc(S(=O)(=O)N2CCC(=O)N(CCOC(=O)Nc3cccc(Cl)c3)CC2)cc1	inconclusive: 37.9 µM [inhibitor, partial curve, poor fit]	
CCOc1ccc(/C=C/C(=O)C(C(N)=O)=C2SCCS2)cc1	active: 1.69 µM	
Clc1ccccc1Nc1ncnc(-n2cccc2)n1	active: 7.57 µM	
Cc1ccc(-n2c(C)cc(/C=C3\C(=O)NC(=O)N(C)C3=O)c2C)cc1C	inconclusive: 1.9 µM [inhibitor, partial curve]	
O=C(NNc1c(F)c(F)cc(F)c1F)c1cc2ccccc2oc1=O	inconclusive: 10.7 µM [inhibitor, partial curve]	

Source: PubChem BioAssay AID588342 (National Center for Advancing Translational Sciences (NCATS), 2011)
